The BET-seq Pho4 binding data (Le et al. 2018)
The other results are listed elsewhere or left out. The energies were worked out here from pooled read counts, against the library average; single values are noisy.

Each sequence was assayed against T1, Pho4 (S. cerevisiae) (UniProt P07270) (assay: relative binding free energy (BET-seq); higher = weaker binding). Details: reference: library average.
T1 sequence: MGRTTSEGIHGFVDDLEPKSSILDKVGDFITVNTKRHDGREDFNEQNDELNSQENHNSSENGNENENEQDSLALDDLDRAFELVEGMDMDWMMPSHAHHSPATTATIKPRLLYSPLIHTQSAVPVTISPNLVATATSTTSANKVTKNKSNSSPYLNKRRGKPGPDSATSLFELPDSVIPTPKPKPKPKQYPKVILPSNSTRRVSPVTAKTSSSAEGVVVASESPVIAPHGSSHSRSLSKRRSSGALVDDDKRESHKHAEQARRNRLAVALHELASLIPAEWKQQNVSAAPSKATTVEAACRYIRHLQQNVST

| Sequence | relative binding free energy |
| --- | --- |
| TCGTTCACGTGGCTGT | 0.15 kcal/mol |
| CTGGTCACGTGAAGGG | 0.27 kcal/mol |
| AGGCGCACGTGTATAT | -0.06 kcal/mol |
| GAGGTCACGTGCGAGA | 0.24 kcal/mol |
| AATTTCACGTGCGCGT | 0.31 kcal/mol |
| GAAGTCACGTGGGGGT | 0.04 kcal/mol |
| GCAGTCACGTGGGGTA | -0.06 kcal/mol |
| GTGGCCACGTGCGTGT | -0.25 kcal/mol |
| AGGTACACGTGAGAAT | 0.41 kcal/mol |
| AGGAGCACGTGGAATG | 0 kcal/mol |
| CTGATCACGTGTGCTT | 0.24 kcal/mol |
| GATTTCACGTGTTAAA | 0.39 kcal/mol |
| GTGACCACGTGTGATT | 0.12 kcal/mol |
| TTGAGCACGTGTGAAA | -0.06 kcal/mol |
| AAGAGCACGTGGGTTA | -0.19 kcal/mol |
| AGAGTCACGTGCAAGT | 0.19 kcal/mol |
| GTGCGCACGTGGGTCA | -0.22 kcal/mol |
| CACTTCACGTGTGGGT | 0.34 kcal/mol |
| GCATGCACGTGTAGTT | 0.08 kcal/mol |
| TTTGACACGTGGGTAC | -0.14 kcal/mol |
| ATTAACACGTGGGGGT | -0.22 kcal/mol |
| TTAGGCACGTGATGTG | -0.05 kcal/mol |
| TATATCACGTGGTATG | 0.07 kcal/mol |
| GTCAACACGTGTGGGT | 0.08 kcal/mol |
| TTGTTCACGTGAGTGA | 0.34 kcal/mol |

| Sequence | relative binding free energy |
| --- | --- |
| TTGGGCACGTGGCGCT | -0.17 kcal/mol |
| CAGGGCACGTGTGGGG | -0.12 kcal/mol |
| GTGGTCACGTGCACGT | 0 kcal/mol |
| CTTATCACGTGGGTGT | 0.05 kcal/mol |
| CAGGGCACGTGCGGGC | -0.13 kcal/mol |
| GTTGTCACGTGCGCTT | 0.08 kcal/mol |
| GCGGTCACGTGTAGGG | 0.17 kcal/mol |
| TTTCTCACGTGGGTTG | 0.15 kcal/mol |
| TATTGCACGTGAGTGA | 0.06 kcal/mol |
| GTGGCCACGTGATGGT | 0.14 kcal/mol |
| TTGATCACGTGGAATT | 0.27 kcal/mol |
| AGGGACACGTGAGCGG | 0.17 kcal/mol |
| TTGTTCACGTGCGTGC | 0.19 kcal/mol |
| TTCAACACGTGTGGGT | -0.05 kcal/mol |
| TGGTACACGTGCGGCG | -0.14 kcal/mol |
| AGTGGCACGTGTGGTC | 0.04 kcal/mol |
| TAGATCACGTGTACGG | 0.16 kcal/mol |
| TATTGCACGTGTGGCT | -0.03 kcal/mol |
| TGAGTCACGTGCAATG | 0.2 kcal/mol |
| TACGGCACGTGGGGGC | -0.23 kcal/mol |
| TGGGACACGTGCGAGG | -0.01 kcal/mol |
| AATAGCACGTGGGTGG | -0.24 kcal/mol |
| AGGTTCACGTGATCGT | 0.36 kcal/mol |
| TTTGGCACGTGTGAGG | 0 kcal/mol |
| AGTAGCACGTGAGGCA | 0.37 kcal/mol |

| Sequence | relative binding free energy |
| --- | --- |
| TGTTGCACGTGAGTGC | 0.2 kcal/mol |
| GCGGGCACGTGGTGCG | -0.19 kcal/mol |
| TTCTTCACGTGCGGGA | 0.27 kcal/mol |
| GGGATCACGTGCGGGG | 0.07 kcal/mol |
| GTGGTCACGTGAATAG | 0.33 kcal/mol |
| GTAAGCACGTGGGGAT | -0.27 kcal/mol |
| ATGTTCACGTGGTCGT | 0.24 kcal/mol |
| GGGCTCACGTGATTGG | 0.33 kcal/mol |
| GACTTCACGTGTTGTT | 0.42 kcal/mol |
| CAAGGCACGTGGGATT | -0.12 kcal/mol |
| TGGGTCACGTGCGATT | 0.11 kcal/mol |
| AGGGGCACGTGCAGTT | -0.25 kcal/mol |
| AAAGGCACGTGGTTTG | -0.19 kcal/mol |
| TCGCGCACGTGGGAGT | -0.27 kcal/mol |
| ATTCTCACGTGCGTTG | 0.28 kcal/mol |
| AAAGGCACGTGGTGTG | -0.24 kcal/mol |
| TGGATCACGTGGCGCG | 0.11 kcal/mol |
| GGAGTCACGTGATAGG | 0.29 kcal/mol |
| CTTGGCACGTGGTAAG | -0.11 kcal/mol |
| GGTGTCACGTGGCTCG | 0.08 kcal/mol |
| ATATTCACGTGAGTAT | 0.24 kcal/mol |
| GCGAGCACGTGGGATG | -0.19 kcal/mol |
| TCGGGCACGTGATGTG | 0.07 kcal/mol |
| TGGAACACGTGCGGTT | 0.01 kcal/mol |
| TAGGTCACGTGTGCGA | 0.08 kcal/mol |

| Sequence | relative binding free energy |
| --- | --- |
| TTTAGCACGTGGTAAC | 0.02 kcal/mol |
| CGGCACACGTGGTGAG | 0.07 kcal/mol |
| GAGTACACGTGGTGAG | 0.11 kcal/mol |
| TCTTCCACGTGGTGGG | 0.02 kcal/mol |
| TAGGTCACGTGTAAAT | 0.16 kcal/mol |
| AGGAGCACGTGTATTG | -0.14 kcal/mol |
| TTGGGCACGTGCTACG | -0.23 kcal/mol |
| GTTGGCACGTGCTAGG | -0.17 kcal/mol |
| AGCTTCACGTGGGGAG | 0.24 kcal/mol |
| TTTAACACGTGAGTTC | 0.34 kcal/mol |
| CGGTACACGTGAAGTT | 0.54 kcal/mol |
| AGGTCCACGTGAGTTA | 0.24 kcal/mol |
| GATTTCACGTGATTTG | 0.49 kcal/mol |
| TGAGTCACGTGAGGCA | 0.22 kcal/mol |
| GTCTGCACGTGGTTTT | 0.14 kcal/mol |
| TCATTCACGTGATAGG | 0.34 kcal/mol |
| GTGGTCACGTGTTTGC | 0.22 kcal/mol |
| TGCTCCACGTGTTTTT | 0.11 kcal/mol |
| TGAATCACGTGTGCTT | 0.14 kcal/mol |
| ATGGTCACGTGTCGTC | 0.17 kcal/mol |
| ATTGTCACGTGCGTTT | -0.1 kcal/mol |
| TTTTACACGTGTAGTG | 0.08 kcal/mol |
| GTGAGCACGTGCAGGT | -0.14 kcal/mol |
| ATCATCACGTGAGGTT | 0.33 kcal/mol |
| GTCTTCACGTGGGAGT | 0.31 kcal/mol |

| Sequence | relative binding free energy |
| --- | --- |
| GTTGACACGTGTAATG | 0.24 kcal/mol |
| CTGTTCACGTGGTTGG | 0.19 kcal/mol |
| TTAGTCACGTGATATG | 0.23 kcal/mol |
| AGTGACACGTGATCGT | 0.05 kcal/mol |
| CAGATCACGTGTAGGT | 0.11 kcal/mol |
| TGTCTCACGTGGTGTG | 0.18 kcal/mol |
| GTGGACACGTGTTTTG | 0.05 kcal/mol |
| TGGAGCACGTGGGATT | -0.05 kcal/mol |
| GCAAGCACGTGGGGTT | -0.09 kcal/mol |
| TGGTTCACGTGGCGTG | 0.27 kcal/mol |
| TGGTGCACGTGGTAAA | -0.09 kcal/mol |
| ACGCTCACGTGTTGGG | 0.34 kcal/mol |
| TGTCGCACGTGGAAGT | 0.03 kcal/mol |
| GTCCGCACGTGGGTGT | -0.11 kcal/mol |
| TGGAGCACGTGGTGTA | -0.08 kcal/mol |
| TGTTCCACGTGGGTTG | -0.11 kcal/mol |
| TAGTCCACGTGGGCTG | -0.07 kcal/mol |
| AGTCTCACGTGTTTGA | 0.29 kcal/mol |
| TTAAACACGTGGGTGA | -0.14 kcal/mol |
| TTTGTCACGTGCGTCT | 0.09 kcal/mol |
| AGTAACACGTGGGGTG | -0.13 kcal/mol |
| TGTTACACGTGAATTA | 0.41 kcal/mol |
| AGTTTCACGTGTTTGC | 0.17 kcal/mol |
| TGGTACACGTGAGCTT | 0.23 kcal/mol |
| TTTTGCACGTGAAAGG | 0.17 kcal/mol |

| Sequence | relative binding free energy |
| --- | --- |
| GTATGCACGTGATCTG | 0.02 kcal/mol |
| GTTGTCACGTGTTGGC | 0.2 kcal/mol |
| TGTTTCACGTGCGTTC | 0.12 kcal/mol |
| GAGGTCACGTGGGTGG | 0.03 kcal/mol |
| TTGGCCACGTGAAATT | 0.39 kcal/mol |
| GTAGTCACGTGGATTT | 0.25 kcal/mol |
| ATCGGCACGTGGTTGT | -0.11 kcal/mol |
| TTTGTCACGTGGGTAG | 0.01 kcal/mol |
| TGAAGCACGTGTTGTG | -0.11 kcal/mol |
| TGGTCCACGTGTAGGG | -0.01 kcal/mol |
| GGGTGCACGTGGGCGA | -0.18 kcal/mol |
| TTGTTCACGTGGCGTA | 0.24 kcal/mol |
| GGATGCACGTGGGACA | 0.02 kcal/mol |
| ATGACCACGTGGTTGG | -0.02 kcal/mol |
| GGTTACACGTGGGCGT | 0.05 kcal/mol |
| ATATACACGTGTTGCT | -0.05 kcal/mol |
| GCGGGCACGTGAACGG | 0.13 kcal/mol |
| TGTGGCACGTGACGTC | -0.05 kcal/mol |
| TGCTGCACGTGGTTCG | -0.22 kcal/mol |
| GGTGTCACGTGGGAAA | 0.16 kcal/mol |
| TACTTCACGTGCGGGT | 0.22 kcal/mol |
